Sequences with one replicate were seen in a single cluster, so their values are uncertain.
Tested on: ATP
Assay: switch fluorescence ratio, 500 uM ATP over buffer (Cy3 cluster intensity, sum of 5 cycles each) (fold (ratio)); higher = stronger signal-on switching upon ATP binding; sequences stand for … in TCGTCGGCAGCGTCAGATGTGTATAAGAGACAGTTTTTTTTTTTTTTTTTTTTTTTTT…TC
Conditions: aptamer strand: ATP DNA aptamer (quencher-CACCTGGGGGAGTATTGCGGAGGAAGG + anchor), 100 nM annealed; ATP concentration: 500 uM; one replicate
Summary of the method: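 Between each of five buffer/ATP cycles, the flow-cell was stripped with NaOH and re-annealed. Each cycle imaged Cy3-labelled switching-strand clusters, annealed to 100 nM quencher-labelled ATP aptamer on a modified Illumina MiSeq flow-cell, first in selection buffer and then after 15 min with 500 uM ATP at 22 °C. The fluorescence ratio is summed target-cycle over summed buffer-cycle Cy3 intensity per cluster, averaged per switch-domain sequence, with clusters outside 100-1000 RFU excluded.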
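Note: ATP exposure 15 min at 22 °C before imaging.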

Row | Sequence | switch fluorescence ratio
1 | TTCTTCGAGG | 1.02
2 | GAGTGAATCA | 0.937
3 | CTTAGCGTAG | 0.956
4 | ACGAGGCAG | 1.67
5 | CCAAGGTAGT | 1.06
6 | ACGGTCAGGC | 1.04
7 | CGTTTCTAGT | 0.979
8 | TGGTGTTGTA | 0.996
9 | GGCCATCCGA | 1.03
10 | ACCGGAGGAT | 0.951
11 | CGTGTGATAC | 4.19
12 | TTCGGAGTA | 0.984
13 | AGGCATCGAA | 1.02
14 | ACAAATTAGG | 1.01
15 | CTGATCAATA | 1.48
16 | TCTTATTTCG | 1.03
17 | GAATTGTAAC | 0.951
18 | CGTCTACCAT | 1.02
19 | TGATAGTAAT | 1.02
20 | TTAGAGGAGC | 1.02
21 | GCTTCATTTA | 0.988
22 | TAGGTCGGTT | 0.955
23 | AGTCGCATAA | 1.09

Row | Sequence | switch fluorescence ratio
24 | CCGAGATGCG | 1.14
25 | GCCTGGTTCG | 0.955
26 | GCCTGGGGGT | 0.997
27 | GGTCTGCGGG | 1
28 | GGAGCAAAGT | 2.05
29 | TGGTATGTCC | 1.35
30 | TTAAACCCAA | 0.973
31 | TGAGTTAATT | 0.982
32 | GGTCCCGACT | 1.02
33 | GTAGTTAGAC | 1.22
34 | ATCTTAAAGC | 1.01
35 | GAGCCACGCA | 1.02
36 | CCATGACGTT | 1.03
37 | TATTTAATGT | 0.983
38 | ATAAAAAAGA | 1.02
39 | AAGCTTCGGA | 0.931
40 | AGTCCCAGCG | 1.04
41 | CTGTTTATAC | 1.95
42 | GACCAGGGCA | 1.08
43 | CTAAGAGCTA | 1.05
44 | TACCAACGAT | 1.39
45 | TACCACCATG | 1.14
46 | AAGCACGGGG | 1.07

Row | Sequence | switch fluorescence ratio
47 | ACAATCCCAC | 1.04
48 | CTGCATGGT | 1.07
49 | ACGCCAGCCA | 1.11
50 | AACTCAGGAA | 1.15
51 | TTAACAGTAG | 1
52 | GGACTGGCTT | 0.895
53 | TTGTGGTTCA | 1.04
54 | AAATGACA | 0.986
55 | GGATGAAAAT | 0.988
56 | CGTTGTGGTG | 0.958
57 | ATTGTTATAC | 1.06
58 | TTGGTATGGT | 0.967
59 | CTCTCCTTAA | 1.04
60 | AGGGAGCAAT | 3.04
61 | ACCTATCCAT | 1.01
62 | CCTGTTACAC | 1.02
63 | ACACGAGTCG | 1.03
64 | TGCCGCAGTG | 1.23
65 | AGAGGTGATG | 0.969
66 | GGACGTTCGT | 0.96
67 | AATGGCAATC | 2.38
68 | AGCTAGGGCA | 1.03
69 | CTGTGGAC | 1.01

Row | Sequence | switch fluorescence ratio
70 | GCATTGACAA | 1.02
71 | AGTAATATTA | 0.983
72 | CGTCTGGAG | 1.01
73 | TTGAGCGCGG | 1.04
74 | GATCAACCTG | 1.01
75 | ACGCGAGGTA | 0.957
76 | AGGGGTTTCA | 1
77 | GCTAGGAGAA | 0.97
78 | CGATCTGGGC | 1
79 | GAAAAACTAT | 1.31
80 | GCTAGGTCG | 1.15
81 | AAGTGGATAC | 1.06
82 | CCTTGTTGCT | 0.951
83 | TATGTTTCGC | 1.02
84 | TGTCGTGATG | 1.04
85 | GGTACGGCTC | 0.989
86 | AGCCTGATTA | 1.02
87 | ACTAGCCGAG | 1.04
88 | GGGTTGGCCT | 0.986
89 | AGGATAAGT | 0.971
90 | AACTTGTGGG | 0.984
91 | CCGACTACTG | 1.01
92 | TTGGGTCTAG | 1.01

Row | Sequence | switch fluorescence ratio
93 | GGTCTATTTC | 0.958
94 | CGATATTACG | 0.982
95 | CACCCCG | 1.55
96 | AATGTAGCGA | 1.1
97 | TGAGGATGTG | 0.996
98 | AGATGATTG | 1.05
99 | TACCCCATAT | 1.13
100 | GGATGGAGTT | 0.972
101 | AAACAGTCTT | 1.01
102 | GCAGGACAGG | 0.97
103 | GTCGCAATA | 2.66
104 | GGGGGGACTC | 1.05
105 | AAGGGTGCCA | 1.04
106 | AGGTGGAATA | 1.06
107 | AAGTATTCAT | 0.967
108 | GGTGGTCGTG | 0.942
109 | GAATGCATCT | 1.03
110 | TGTGACGTTT | 1.03
111 | GGCCGGTGTG | 1.02
112 | CCGGCCCCCG | 1.25
113 | TTTTGTGGA | 1.01
114 | AACACCAGCG | 1.16
115 | CATCGGGTGT | 1.23

Row | Sequence | switch fluorescence ratio
116 | TTTGTATGTA | 0.982
117 | ACGTTTAGCC | 1.11
118 | GGGGCGTTT | 1
119 | GAGGATTCTT | 0.987
120 | ATCGCGTGCT | 0.962
121 | GTTATATGTC | 1.01
122 | GATGCATGCC | 1.04
123 | GATTTATCGA | 1.01
124 | GACCGCTTGT | 1.06
125 | AGGTTAACGT | 1.02
126 | ACGACATCT | 1.12
127 | ACTTGCAAAC | 5.52
128 | ATCACAGCAT | 1.08
129 | TAGACCAATT | 0.97
130 | GCGCCAACCG | 0.988
131 | TTTACCTGGT | 1.01
132 | ATAACGATCA | 1.08
133 | TGGGTCTGAG | 0.991
134 | CTAGAGGGAG | 1.01
135 | CCAAGCGGTG | 1.17
136 | GATGTTTTGT | 1.01
137 | AATATACGTT | 1.03
138 | GTTAGTCTCG | 1.06

Row | Sequence | switch fluorescence ratio
139 | GGAGTAGTTC | 1.02
140 | GGCATGACAG | 0.963
141 | AGGTACCTTA | 0.993
142 | AAACATTCCG | 1.9
143 | GGACCAACGT | 1.27
144 | TTCGACCTAC | 1.13
145 | AGACCGCATA | 5.41
146 | AACAAGTTCT | 0.982
147 | CCACCCCAAG | 1.42
148 | GGTTAATATC | 1
149 | TAGTCCTTT | 0.976
150 | TGAGACCGTA | 0.947
151 | ATTCCGAATG | 1.09
152 | ATAATATGCG | 1.05
153 | GAAGTTCGGG | 1
154 | CGTTTTTCCT | 1.03
155 | GGCCGTATCA | 0.977
156 | TTGTCGATAG | 1.1
157 | CTTTATAACG | 0.98
